# Test results taken from the supplement of paper PMC8728848.
# The list shows a part of the results.
# B1: MGL2 (Mus musculus), Q8JZN1 (protein)
# chain: MTMRYENFQNLEREEKNQEMRNGDKKGGMESPKFALIPSQSFLWRILSWTHLLLFSLGLSLLLLVVISVIGSQNSQLRRDLGTLRAILDNTTSKIKAEFQSLDSRADNFEKGISSLKVDVEDHRQELQAGRDLSQKVTSLESTLEKREQALKTDLSDLTDHVQQLETDLKALTCQLANLKNNGSEVACCPLHWTEHEGSCYWFSESEKSWPEADKYCRLENSHLVVVNSLEEQNFLQNRLANVLSWMGLTDQNGPWRWVDGTDFDKGFKNWRPLQPDNWHGHMLGGGEDCAHFSYDGRWNDDVCQRHYHWICETELGKASSAHSPQLIASVP
# How the values were obtained:
# Assay in all cases: glycan array binding signal (z-score within array); higher = stronger binding
# Conditions in all cases: glycan notation: IUPAC condensed, linker removed
# [1] = biological target: Neu5Ac(a2-3)Gal(b1-4)GlcNAc(b1-3)Gal(b1-4)GlcNAc(b1-2)Man(a1-3)[Neu5Ac(a2-3)Gal(b1-4)GlcNAc(b1-3)Gal(b1-4)GlcNAc(b1-2)Man(a1-6)]Man(b1-4)GlcNAc(b1-4)GlcNAc
# How it was run: (§1)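 The binding signal is a Z-score computed within each array and averaged over linkers. Arrays of the same protein sequence at different concentrations or buffers were also averaged together. Data originate from 3228 arrays in the Consortium for Functional Glycomics database, kept only where the protein sequence was available.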
# [2] = biological target: Neu5Ac(a2-3)Gal(b1-4)GlcNAc(b1-3)Gal(b1-4)GlcNAc(b1-3)Gal(b1-4)GlcNAc
# How it was run: as §1
# [3] = biological target: Neu5Ac(a2-3)Gal(b1-4)GlcNAc(b1-3)Gal(b1-4)GlcNAc(b1-3)Gal(b1-4)GlcNAc(b1-2)Man(a1-3)[Neu5Ac(a2-3)Gal(b1-4)GlcNAc(b1-3)Gal(b1-4)GlcNAc(b1-3)Gal(b1-4)GlcNAc(b1-2)Man(a1-6)]GalNAc
# How it was run: as §1
# [4] = biological target: Neu5Ac(a2-3)Gal(b1-4)GlcNAc(b1-3)Gal(b1-4)GlcNAc(b1-3)GalNAc
# How it was run: as §1
# [5] = biological target: Neu5Ac(a2-3)Gal(b1-4)GlcNAc(b1-3)Gal(b1-4)GlcNAc(b1-3)[Neu5Ac(a2-3)Gal(b1-4)GlcNAc(b1-3)Gal(b1-4)GlcNAc(b1-6)]GalNAc
# How it was run: as §1
# [6] = biological target: Neu5Ac(a2-3)Gal(b1-4)GlcNAc(b1-3)Gal(b1-4)GlcNAc(b1-6)[Gal(b1-3)]GalNAc
# How it was run: as §1
# [7] = biological target: Neu5Ac(a2-3)Gal(b1-4)GlcNAc(b1-3)Gal(b1-4)[Fuc(a1-3)]GlcNAc
# How it was run: as §1
# [8] = biological target: Neu5Ac(a2-3)Gal(b1-4)GlcNAc(b1-3)GalNAc
# How it was run: as §1
# [9] = biological target: Neu5Ac(a2-3)Gal(b1-4)GlcNAc(b1-3)[Neu5Ac(a2-3)Gal(b1-4)GlcNAc(b1-6)]GalNAc
# How it was run: as §1
# [10] = biological target: Neu5Ac(a2-3)Gal(b1-4)GlcNAc(b1-6)GalNAc
# How it was run: as §1
# [11] = biological target: Neu5Ac(a2-3)Gal(b1-4)GlcNAc(b1-6)[Gal(b1-3)]GalNAc
# How it was run: as §1
# [12] = biological target: Neu5Ac(a2-3)Gal(b1-4)GlcNAc(b1-6)[Neu5Ac(a2-3)Gal(b1-3)]GalNAc
# How it was run: as §1
# [13] = biological target: Neu5Ac(a2-3)Gal(b1-4)GlcNAc6S
# How it was run: as §1
# [14] = biological target: Neu5Ac(a2-3)Gal(b1-4)[Fuc(a1-3)]GlcNAc
# How it was run: as §1
# [15] = biological target: Neu5Ac(a2-3)Gal(b1-4)[Fuc(a1-3)]GlcNAc(b1-2)Man
# How it was run: as §1
# [16] = biological target: Neu5Ac(a2-3)Gal(b1-4)[Fuc(a1-3)]GlcNAc(b1-3)Gal
# How it was run: as §1
# [17] = biological target: Neu5Ac(a2-3)Gal(b1-4)[Fuc(a1-3)]GlcNAc(b1-3)Gal(b1-4)GlcNAc
# How it was run: as §1
# [18] = biological target: Neu5Ac(a2-3)Gal(b1-4)[Fuc(a1-3)]GlcNAc(b1-3)Gal(b1-4)[Fuc(a1-3)]GlcNAc(b1-3)Gal(b1-4)[Fuc(a1-3)]GlcNAc
# How it was run: as §1
# [19] = biological target: Neu5Ac(a2-3)Gal(b1-4)[Fuc(a1-3)]GlcNAc(b1-3)GalNAc
# How it was run: as §1
# [20] = biological target: Neu5Ac(a2-3)Gal(b1-4)[Fuc(a1-3)]GlcNAc(b1-6)[Gal(b1-3)]GalNAc
# How it was run: as §1
# [21] = biological target: Neu5Ac(a2-3)Gal(b1-4)[Fuc(a1-3)]GlcNAc(b1-6)[Neu5Ac(a2-3)Gal(b1-3)]GalNAc
# How it was run: as §1
# [22] = biological target: Neu5Ac(a2-3)Gal(b1-4)[Fuc(a1-3)]GlcNAc6S
# How it was run: as §1
# [23] = biological target: Neu5Ac(a2-3)Gal6S(b1-4)GlcNAc
# How it was run: as §1
# [24] = biological target: Neu5Ac(a2-3)Gal6S(b1-4)[Fuc(a1-3)]GlcNAc
# How it was run: as §1
# [25] = biological target: Neu5Ac(a2-3)GalNAc
# How it was run: as §1
# [26] = biological target: Neu5Ac(a2-3)GalNAc(b1-4)GlcNAc
# How it was run: as §1
# [27] = biological target: Neu5Ac(a2-3)[GalNAc(b1-4)]Gal(b1-4)Glc
# How it was run: as §1
# [28] = biological target: Neu5Ac(a2-3)[GalNAc(b1-4)]Gal(b1-4)GlcNAc
# How it was run: as §1
# [29] = biological target: Neu5Ac(a2-3)[GalNAc(b1-4)]Gal(b1-4)GlcNAc(b1-3)GalNAc
# How it was run: as §1
# [30] = biological target: Neu5Ac(a2-3)[Neu5Ac(a2-6)]GalNAc
# How it was run: as §1
# [31] = biological target: Neu5Ac(a2-6)Gal
# How it was run: as §1
# [32] = biological target: Neu5Ac(a2-6)Gal(b1-3)GlcNAc(b1-3)[Gal(b1-4)GlcNAc(b1-6)]Gal(b1-4)Glc
# How it was run: as §1
# [33] = biological target: Neu5Ac(a2-6)Gal(b1-4)Glc
# How it was run: as §1
# [34] = biological target: Neu5Ac(a2-6)Gal(b1-4)GlcNAc
# How it was run: as §1
# [35] = biological target: Neu5Ac(a2-6)Gal(b1-4)GlcNAc(b1-2)Man
# How it was run: as §1
# [36] = biological target: Neu5Ac(a2-6)Gal(b1-4)GlcNAc(b1-2)Man(a1-3)Man(b1-4)GlcNAc(b1-4)GlcNAc
# How it was run: as §1
# [37] = biological target: Neu5Ac(a2-6)Gal(b1-4)GlcNAc(b1-2)Man(a1-3)[Gal(b1-4)GlcNAc(b1-2)Man(a1-6)]Man(b1-4)GlcNAc(b1-4)GlcNAc
# How it was run: as §1
# [38] = biological target: Neu5Ac(a2-6)Gal(b1-4)GlcNAc(b1-2)Man(a1-3)[GlcNAc(b1-2)Man(a1-6)]Man(b1-4)GlcNAc(b1-4)GlcNAc
# How it was run: as §1
binder,measurement,setting,value
B1,glycan array binding signal (z-score),[1],0.166
same,glycan array binding signal (z-score),[2],-0.179
same,glycan array binding signal (z-score),[3],0.431
same,glycan array binding signal (z-score),[4],-0.204
same,glycan array binding signal (z-score),[5],-0.027
same,glycan array binding signal (z-score),[6],-0.096
same,glycan array binding signal (z-score),[7],-0.193
same,glycan array binding signal (z-score),[8],-0.189
same,glycan array binding signal (z-score),[9],-0.145
same,glycan array binding signal (z-score),[10],0.616
same,glycan array binding signal (z-score),[11],-0.046
same,glycan array binding signal (z-score),[12],-0.271
same,glycan array binding signal (z-score),[13],-0.289
same,glycan array binding signal (z-score),[14],-0.231
same,glycan array binding signal (z-score),[15],-0.115
same,glycan array binding signal (z-score),[16],-0.247
same,glycan array binding signal (z-score),[17],-0.189
same,glycan array binding signal (z-score),[18],-0.059
same,glycan array binding signal (z-score),[19],-0.085
same,glycan array binding signal (z-score),[20],-0.139
same,glycan array binding signal (z-score),[21],-0.036
same,glycan array binding signal (z-score),[22],-0.25
same,glycan array binding signal (z-score),[23],-0.227
same,glycan array binding signal (z-score),[24],-0.203
same,glycan array binding signal (z-score),[25],-0.214
same,glycan array binding signal (z-score),[26],-0.269
same,glycan array binding signal (z-score),[27],-0.141
same,glycan array binding signal (z-score),[28],-0.207
same,glycan array binding signal (z-score),[29],-0.236
same,glycan array binding signal (z-score),[30],-0.23
same,glycan array binding signal (z-score),[31],-0.168
same,glycan array binding signal (z-score),[32],-0.183
same,glycan array binding signal (z-score),[33],-0.144
same,glycan array binding signal (z-score),[34],-0.205
same,glycan array binding signal (z-score),[35],-0.19
same,glycan array binding signal (z-score),[36],-0.247
same,glycan array binding signal (z-score),[37],-0.14
same,glycan array binding signal (z-score),[38],-0.285
